Here are results for two molecules from patent US20220267438A1 (Janssen / Centocor, published 2022).

The target in test [1] is T1, BCMW37 (recombinant human BCMA antigen) (human, UniProt Q02223 1-54, limits assumed).
T1 construct: also called BCMA BCMW37 chain; human BCMA (SPR antigen)
T1 sequence (looked up): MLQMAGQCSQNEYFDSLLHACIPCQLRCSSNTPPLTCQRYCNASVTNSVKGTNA
The test can be described thus: SPR; antigen BCMW37. For orientation: In SPR one partner is held on a chip, and binding of the other changes the refractive index at the surface.

In test [2] the target is T2, CD3W200, recombinant CD3εγ heterodimer construct (human, UniProt P07766 22-118; P09693 23-103).
T2 construct: also called human CD3 (SPR antigen for BGCB491)
The test can be described thus: SPR, CD3 binding after chemical oxidation.

The target of test [3] is T2, CD3W200, recombinant CD3εγ heterodimer …. The test can be described thus: SPR, CD3 binding after physiological stress.
For test [4], the target named is T3, human BCMA (B cell maturation antigen, TNFRSF17) on cells (human, UniProt Q02223 1-184).
T3 construct: whole, on cells; Target on H929 or MM.1R GPRC5D knockout cells, K562 cells expressing human BCMA, HEK293 cells of the cell microarray, and BCMA-only lymphoma lines; also called CD269; surface BCMA
T3 sequence (looked up): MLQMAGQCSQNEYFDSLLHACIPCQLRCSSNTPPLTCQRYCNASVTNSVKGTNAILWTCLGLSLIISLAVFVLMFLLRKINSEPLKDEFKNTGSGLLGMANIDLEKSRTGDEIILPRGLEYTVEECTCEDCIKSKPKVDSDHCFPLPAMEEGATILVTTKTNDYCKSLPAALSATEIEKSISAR
The test can be described thus: flow cytometry, H929-GPRC5D-KO cells (BCMA arm), 1 h 37C; Run 4. Here is the method:
Flow cytometry was used to evaluate the BCMA and GPRC5D arm binding of BGCB491 in vitro. BGCB491 and isotype control were tested on a panel of H929-WT, H929-BCMA-KO, H929-GPRC5D-KO, and H929-BCMA/GPRC5D-KO cell lines after 1-hour 37° C. incubation.
For orientation: A flow cytometer gives signals particle by particle.

Test [5] has as its target T4, human CD3 (CD3ε of the TCR/CD3 complex) on primary human pan T cells (human, UniProt P07766).
T4 construct: whole, on cells; On T cells CD3ε stands in the whole TCR/CD3 complex
Description: flow cytometry, pan T cells, donor D316144; estimated, fixed saturation point from bioinformatic extrapolation. The method, then:
Flow cytometry was used to evaluate the CD3 arm (i.e., CD3B376) binding of BGCB491 to CD3⁺ pan T cells from 7 different healthy human. Cell-based EC₅₀ for CD3B376 could not be determined due to lack of saturation kinetics at 1 hour (FIG. 26). Bioinformatic extrapolation was performed (FIG. 27) using the CD3B376×Null control antibody (i.e., GCDB381) molecule, which saturates within 2 μM top concentration dose-response to constrain the top of the non-linear regression curve to generate a full curve that enables estimation of ECₓ values (Table 21).

In test [6] the target is T5, human GPRC5D (G-protein coupled receptor family C group 5 member D) on cells (human, UniProt Q9NZD1 1-345).
T5 construct: Target on H929 or MM.1R BCMA knockout cells, K562 cells expressing human GPRC5D and HEK293 cells of the cell microarray
The test can be described thus: flow cytometry, MM.1R BCMA KO cells, 1 h 37C; Run 3.

In test [7] the target is T4, human CD3 (CD3ε of the TCR/CD3 complex) …. The test can be described thus: flow cytometry, human pan T cells, Donor 1, 1 h 37C; Run 5. Here is the method:
(§1) For binding of BGCB463 to human and cynomolgus Pan T cells, three human donors (Hemacare) were selected, quickly thawed, resuspended, and aliquoted into a 96-well plate at 1×10⁶ cells/mL. Cells were then washed, Fc blocked if necessary (Innovex), and stained with viability dye (Invitrogen). BGCB463 and its corresponding isotype (B23B251) were diluted in complete media to an initial concentration of 2 μM and 1:3 serial dilutions in duplicate were performed for a dose-response curve. The cells were incubated with molecules at 4° C. or 37° C. for 1 hour. When necessary, incubation with 90% human serum (Sigma) was also performed as described above.
(§2) First, FACS-based binding for GPRC5D and BCMA binding arms of the trispecific molecule was determined by measuring the effective concentration (EC) range from a dose-response curve using a 4-parameter fit at 37° C. for 1 hr. This was assessed using an H929 suite of cells (WT, GPRC5D-KO, BCMA-KO, and GPRC5D/BCMA KO), and a similar MM.1R suite. Cell based EC₅₀ is approximately 13 nM for WT H929 (FIGS. 2A-2D, Table 7) and 2.4 nM for WT MM.1R (FIGS. 3A-3D, Table 8). […] Next, cell-based EC₅₀ was determined for the CD3-binding Fab arm using purified Pan T cells from three random donors. […] Next, dose responsive binding was assessed at 4° C. to remove any potential biological effects. […]

For test [8] the target is unchanged. Description: flow cytometry, human pan T cells, Donor 2, 1 h 37C; Run 1. The method, then: as §1, §2
Test [9] shares this target. The test can be described thus: flow cytometry, human pan T cells, Donor 3, 1 h 37C; Run 5. The method, then: as §1, §2
For test [10] the target is unchanged. The test can be described thus: flow cytometry, human pan T cells, Donor 2, 1 h 37C; average of runs. Here is the method: as §1, §2
The target of test [11] is T5, human GPRC5D (G-protein coupled …). Description: flow cytometry on MM.1R BCMA KO cells (GPRC5D arm), 1 hr 37 C, AF647 secondary detection. Here is the method:
First, FACS-based binding for GPRC5D and BCMA binding arms of the trispecific molecule was determined by measuring the effective concentration (EC) range from a dose-response curve using a 4-parameter fit at 37° C. for 1 hr. This was assessed using an H929 suite of cells (WT, GPRC5D-KO, BCMA-KO, and GPRC5D/BCMA KO), and a similar MM.1R suite. Cell based EC₅₀ is approximately 13 nM for WT H929 (FIGS. 2A-2D, Table 7) and 2.4 nM for WT MM.1R (FIGS. 3A-3D, Table 8). A clear avidity affect is observed as EC₅₀ and Bmax are both reduced in GPRC5D-KO and BCMA-KO lines which test monovalent binding of target binding arms (Table 7). Next, cell-based EC₅₀ was determined for the CD3-binding Fab arm using purified Pan T cells from three random donors. […] Next, dose responsive binding was assessed at 4° C. to remove any potential biological effects. As shown in FIGS. 5A-5C, binding is stronger (50-100 nM) at 4° C., compared to 37° C., which may indicate internalization. Additionally, two expression lots of BGCB463 (BGCB463.003 from transient transfection and BGCB463.004 from a stable transfection pool), were directly compared with binding to H929, MM.1R, and Pan T cells and no differences were noted (FIGS. 6A-6C).

The target in test [12] is T6, cynomolgus BCMA on K562 cells (cynomolgus monkey, UniProt A0A2K5UD97 1-183).
T6 construct: whole, on cells; also called cyno BCMA
The test can be described thus: flow cytometry on K562 cells expressing cynomolgus BCMA, 1 hr 37 C, AF647-anti-human IgG.

T5 sequence (Q9NZD1 whole entry): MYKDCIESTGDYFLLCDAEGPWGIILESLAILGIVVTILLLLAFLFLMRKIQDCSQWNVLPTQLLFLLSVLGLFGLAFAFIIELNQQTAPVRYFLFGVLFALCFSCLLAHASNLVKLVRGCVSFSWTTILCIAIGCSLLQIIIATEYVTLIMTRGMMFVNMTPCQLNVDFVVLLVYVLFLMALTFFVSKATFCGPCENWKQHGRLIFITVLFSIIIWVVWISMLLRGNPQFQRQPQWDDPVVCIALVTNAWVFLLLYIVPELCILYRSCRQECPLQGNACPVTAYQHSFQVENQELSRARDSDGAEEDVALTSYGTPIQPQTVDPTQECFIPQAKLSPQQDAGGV
T6 sequence (A0A2K5UD97 entry or part of it): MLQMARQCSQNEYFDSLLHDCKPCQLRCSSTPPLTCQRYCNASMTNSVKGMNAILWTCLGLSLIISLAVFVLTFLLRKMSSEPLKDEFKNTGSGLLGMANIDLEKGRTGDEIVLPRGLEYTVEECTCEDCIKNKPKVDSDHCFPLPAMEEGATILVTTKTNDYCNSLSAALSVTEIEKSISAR

B1: BGCB491 (other)
heavy: QVQLQQSGPRLVRPSQTLSLTCAISGDSVFNNNAAWSWIRQSPSRGLEWLGRTYYRSKWLYDYAVSVKSRITVNPDTSRNQFTLQLNSVTPEDTALYYCARGYSSSFDYWGQGTLVTVSSASTKGPSVFPLAPSSKSTSGGTAALGCLVKDYFPEPVTVSWNSGALTSGVHTFPAVLQSSGLYSLSSVVTVPSSSLGTQTYICNVNHKPSNTKVDKKVEPKSCDKTHTCPPCPAPEAAGGPSVFLFPPKPKDTLMISRTPEVTCVVVSVSHEDPEVKFNWYVDGVEVHNAKTKPREEQYNSTYRVVSVLTVLHQDWLNGKEYKCKVSNKALPAPIEKTISKAKGQPREPQVYTLPPSREEMTKNQVSLSCAVKGFYPSDIAVEWESNGQPENNYKTTPPVLDSDGSFFLVSKLTVDKSRWQQGNVFSCSVMHEALHNRFTQKSLSLSPGKGGGGSGGGGSGGGGSGGGGS[letters of about 100 residues not shown]QFPHTFGQGTKLEIKGGSEGKSSGSGSESKSTGGSQVTLKESGPVLVKPTETLTLTCTVSGFSLTNIRMSVSWIRQPPGKALEWLAHIFSNDEKSYSTSLKSRLTISRDTSKSQVVLTLTNVDPVDTATYYCARMRLPYGMDVWGQGTTVTVSS
light: QSALTQPASVSGSPGQSITISCTGTSSNIGTYKFVSWYQQHPDKAPKVLLYEVSKRPSGVSSRFSGSKSGNTASLTISGLQAEDQADYHCVSYAGSGTLLFGGGTKLTVLGQPKAAPSVTLFPPSSEELQANKATLVCLISDFYPGAVTVAWKADSSPVKAGVETTTPSKQSNNKYAASSYLSLTPEQWKSHRSYSCQVTHEGSTVEKTVAPTECS
chain: EIVLTQSPGTLSLSPGERATLSCRASQSISSSFLTWYQQKPGQAPRLLIYGASSRATGIPDRFSGGGSGTDFTLTISRLEPEDFAVYYCQHYGSSPMYTFGQGTKLEIKGGSEGKSSGSGSESKSTGGS[letters of about 100 residues not shown]DEGYSSGHYYGMDVWGQGTTVTVSSEPKSSDKTHTCPPCPAPEAAGGPSVFLFPPKPKDTLMISRTPEVTCVVVSVSHEDPEVKFNWYVDGVEVHNAKTKPREEQYNSTYRVVSVLTVLHQDWLNGKEYKCKVSNKALPAPIEKTISKAKGQPREPQVYTLPPSREEMTKNQVSLWCLVKGFYPSDIAVEWESNGQPENNYKTTPPVLDSDGSFFLYSKLTVDKSRWQQGNVFSCSVMHEALHNHYTQKSLSLSPGK
notes: Trispecific IgG1 antibody (L234A, L235A, D265S); Heavy chain 1 = anti-CD3 (CD3B376) Fab heavy chain, hole and RF mutations, with C-terminal anti-GPRC5D scFv (GC5B680); Heavy chain 2 = anti-BCMA scFv (BCMB519) - Fc knob; also called JNJ-79635322; BCMA×GPRC5D×CD3 trispecific mAb
One may read the Kd as the constant that tells how readily two partners part at equilibrium. Usually EC50 stands for the concentration needed to bring the measured effect to its halfway point. In the case of B1, the figures for the Kd in test [1], in [2] and in test [3] were 0.21 nM, 22.7 nM and 19.3 nM, respectively. Moreover, the values for the 50% effective concentration (EC50) in [4] and in test [5] were 50 nM and 4990 nM, respectively.

B2: BGCB463 (other)
heavy: QVQLQQSGPRLVRPSQTLSLTCAISGDSVFNNNAAWSWIRQSPSRGLEWLGRTYYRSKWLYDYAVSVKSRITVNPDTSRNQFTLQLNSVTPEDTALYYCARGYSSSFDYWGQGTLVTVSSASTKGPSVFPLAPSSKSTSGGTAALGCLVKDYFPEPVTVSWNSGALTSGVHTFPAVLQSSGLYSLSSVVTVPSSSLGTQTYICNVNHKPSNTKVDKKVEPKSCDKTHTCPPCPAPEAAGGPSVFLFPPKPKDTLMISRTPEVTCVVVSVSHEDPEVKFNWYVDGVEVHNAKTKPREEQYNSTYRVVSVLTVLHQDWLNGKEYKCKVSNKALPAPIEKTISKAKGQPREPQVYTLPPSREEMTKNQVSLSCAVKGFYPSDIAVEWESNGQPENNYKTTPPVLDSDGSFFLVSKLTVDKSRWQQGNVFSCSVMHEALHNRFTQKSLSLSPGK
light: B1 light
chain: [letters of about 100 residues not shown]QFPHTFGQGTKLEIKGGSEGKSSGSGSESKSTGGSQVTLKESGPVLVKPTETLTLTCTVSGFSLTNIRMSVSWIRQPPGKALEWLAHIFSNDEKSYSTSLKSRLTISRDTSKSQVVLTLTNVDPVDTATYYCARMRLPYGMDVWGQGTTVTVSSEPKSSDKTHTCPPCPAPEAAGGPSVFLFPPKPKDTLMISRTPEVTCVVVSVSHEDPEVKFNWYVDGVEVHNAKTKPREEQYNSTYRVVSVLTVLHQDWLNGKEYKCKVSNKALPAPIEKTISKAKGQPREPQVYTLPPSREEMTKNQVSLWCLVKGFYPSDIAVEWESNGQPENNYKTTPPVLDSDGSFFLYSKLTVDKSRWQQGNVFSCSVMHEALHNHYTQKSLSLSPGKGGSEGKSSGSGSESKSTGGSEIVLTQSPGTLSLSPGERATLSCRASQSISSSFLTWYQQKPGQAPRLLIYGASSRATGIPDRFSGGGSGTDFTLTISRLEPEDFAVYYCQHYGSSPMYTFGQGTKLEIKGGSEGKSSGSGSESKSTGGS[letters of about 100 residues not shown]DEGYSSGHYYGMDVWGQGTTVTVSS
notes: Trispecific IgG1 antibody (L234A, L235A, D265S); Heavy chain 1 = anti-CD3 (CD3B376) Fab heavy chain with hole and RF mutations; also called BGCB463.003; BGCB463.004
For orientation: EC50 (read off the curve) means the midpoint of the concentration-response curve. A higher EC50 (read off the curve) goes with a need for much substance. As to B2, the EC50 in test [6] was found to be 35.3 nM; in [7] it was 103 nM; in test [8], 572 nM; in [9] it was 251 nM; in test [10], 290 nM. Also, the 50% effective concentration (EC50 (read off the curve)) in [11] is roughly 10 nM. Also, the binding result in test [12] was “no binding (tested: 2 µM)”.
